Measured values published in PubChem BioAssay AID504333 (National Center for Advancing Translational Sciences (NCATS), 2011).
In all, about 360,000 compounds went through this assay and about 16,000 (4.4%) were called active. The shares of active, inactive and inconclusive entries below differ from those in the screen. Calls come from the whole dose curve; as a rule, active = well fitted inhibition curve with a large enough effect; inconclusive = small, poorly fitted or top-dose-only effect; inactive = no such curve, though single readings can be large or run the other way. Where the call is inconclusive, the potency comes from a doubtful curve fit.

What follows are molecules tested against Bromodomain adjacent to zinc finger domain protein 2B (Homo sapiens) (UniProt Q9UIF8) (assay: qHTS Assay for Inhibitors of BAZ2B). Conditions: AlphaScreen BAZ2B-H3K14Ac peptide displacement; activity change, negative = inhibition: at 114 µM (top of the series).
Sequence of UniProt Q9UIF8 (Q9UIF8 whole entry, looked up, the tested form may be a part): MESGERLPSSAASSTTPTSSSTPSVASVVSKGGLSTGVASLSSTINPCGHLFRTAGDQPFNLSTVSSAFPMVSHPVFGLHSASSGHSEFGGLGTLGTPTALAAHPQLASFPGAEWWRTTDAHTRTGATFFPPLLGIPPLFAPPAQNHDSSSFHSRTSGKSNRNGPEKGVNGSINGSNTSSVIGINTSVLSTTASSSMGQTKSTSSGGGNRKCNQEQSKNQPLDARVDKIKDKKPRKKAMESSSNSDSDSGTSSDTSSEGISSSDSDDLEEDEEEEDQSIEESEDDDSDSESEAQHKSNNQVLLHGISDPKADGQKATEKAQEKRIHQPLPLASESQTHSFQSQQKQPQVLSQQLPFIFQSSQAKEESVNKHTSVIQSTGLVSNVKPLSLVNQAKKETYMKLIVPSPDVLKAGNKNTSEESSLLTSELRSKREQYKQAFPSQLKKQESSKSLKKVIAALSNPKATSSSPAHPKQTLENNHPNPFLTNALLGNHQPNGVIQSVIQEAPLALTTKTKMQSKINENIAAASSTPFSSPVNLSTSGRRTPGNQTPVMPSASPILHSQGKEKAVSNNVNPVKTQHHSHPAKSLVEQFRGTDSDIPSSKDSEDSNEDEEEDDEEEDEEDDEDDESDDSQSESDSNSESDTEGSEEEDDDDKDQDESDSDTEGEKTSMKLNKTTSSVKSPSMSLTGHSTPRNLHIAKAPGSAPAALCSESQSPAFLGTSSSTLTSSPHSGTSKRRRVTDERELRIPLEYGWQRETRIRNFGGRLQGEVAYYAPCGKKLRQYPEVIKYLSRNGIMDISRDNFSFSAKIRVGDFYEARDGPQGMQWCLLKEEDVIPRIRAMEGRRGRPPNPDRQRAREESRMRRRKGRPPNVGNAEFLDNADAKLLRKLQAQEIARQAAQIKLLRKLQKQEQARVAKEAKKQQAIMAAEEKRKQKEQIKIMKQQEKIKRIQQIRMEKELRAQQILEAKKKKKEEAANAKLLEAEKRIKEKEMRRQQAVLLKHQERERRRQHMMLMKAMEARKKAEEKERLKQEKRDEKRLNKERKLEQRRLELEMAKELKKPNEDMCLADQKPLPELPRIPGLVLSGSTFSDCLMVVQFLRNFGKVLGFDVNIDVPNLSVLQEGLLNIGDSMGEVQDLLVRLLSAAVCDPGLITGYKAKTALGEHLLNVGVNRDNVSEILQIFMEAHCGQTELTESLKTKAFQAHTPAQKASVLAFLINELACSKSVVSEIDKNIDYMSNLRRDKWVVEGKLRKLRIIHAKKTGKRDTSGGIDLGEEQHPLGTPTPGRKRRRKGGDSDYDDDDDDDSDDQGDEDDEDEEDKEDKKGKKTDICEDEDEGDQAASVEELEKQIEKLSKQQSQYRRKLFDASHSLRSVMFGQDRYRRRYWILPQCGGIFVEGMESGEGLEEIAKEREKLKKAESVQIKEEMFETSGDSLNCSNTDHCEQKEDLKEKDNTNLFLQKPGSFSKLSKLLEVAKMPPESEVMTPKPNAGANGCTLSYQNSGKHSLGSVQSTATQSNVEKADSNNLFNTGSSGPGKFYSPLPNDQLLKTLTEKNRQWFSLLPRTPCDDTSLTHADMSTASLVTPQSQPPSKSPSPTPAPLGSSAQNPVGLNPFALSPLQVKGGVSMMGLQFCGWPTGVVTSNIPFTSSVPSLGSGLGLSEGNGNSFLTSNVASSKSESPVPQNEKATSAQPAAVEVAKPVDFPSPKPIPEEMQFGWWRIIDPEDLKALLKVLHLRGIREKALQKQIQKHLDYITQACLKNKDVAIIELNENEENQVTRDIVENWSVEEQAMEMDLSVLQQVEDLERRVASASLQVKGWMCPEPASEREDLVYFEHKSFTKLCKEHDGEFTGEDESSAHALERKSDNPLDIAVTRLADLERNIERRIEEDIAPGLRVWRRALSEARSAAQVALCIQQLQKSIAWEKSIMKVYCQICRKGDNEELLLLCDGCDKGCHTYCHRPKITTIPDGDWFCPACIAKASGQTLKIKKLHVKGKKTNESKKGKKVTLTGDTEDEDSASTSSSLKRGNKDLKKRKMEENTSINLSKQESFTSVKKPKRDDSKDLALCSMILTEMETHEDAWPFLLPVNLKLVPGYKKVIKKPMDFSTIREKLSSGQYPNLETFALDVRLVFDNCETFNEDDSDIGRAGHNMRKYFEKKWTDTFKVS
In short: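 AlphaScreen displacement of biotin-H3(5-23)K14Ac peptide (50 nM final) from BAZ2B (50 nM final) in PBS pH 7.4, 0.01% Tween-20; complex preformed 30 min RT, then compounds (top 110 uM) 30 min RT, beads 20 min dark.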
% is set by controls: 0 for no effect and ±100 for the full control effect; potency is the fitted concentration of half-maximal effect; tags give direction and shape of the fitted curve.
Note: nearly all actives have a fitted effect of over 60% in size.

Structure (SMILES) | Potency | activity change, negative = inhibition
COc1ccc(CCC(=O)N2CCN(c3ccc(OC)cc3)CC2)cc1 | inconclusive: 70.8 µM [inhibitor, single point] | –
Cc1ccc[n+](C(C)C(=O)Nc2ccc(C)c([N+](=O)[O-])c2)c1 (stereo unspecified) | – | inactive: -1.06%
CCOC(=O)NC(=O)c1cn(Nc2ccccc2)c(=O)[nH]c1=O | – | inactive: 10.3%
NC(=O)c1c(NC(=O)c2ccccc2)sc2c1CCC2 | inconclusive: 50.1 µM [inhibitor, partial curve] | –
CN(C)CCCNc1oc(-c2ccccc2Cl)nc1S(=O)(=O)c1ccccc1 | inconclusive: 79.4 µM [inhibitor, single point] | –
CCOC(=O)c1cc(-c2ccccc2)n(CC(=O)N(C)c2ccc(OC)cc2)c1C | inconclusive: 39.8 µM [inhibitor, full curve, poor fit] | –
O=C(CSc1ccccc1Cl)NC1CCCc2ccccc21 (stereo unspecified) | inconclusive: 50.1 µM [inhibitor, partial curve] | –
O=C(Nc1ccc2c(c1)OCO2)C1Cc2ccccc2CN1S(=O)(=O)c1cccs1 (stereo unspecified) | inconclusive: 50.1 µM [inhibitor, partial curve] | –
CCOC(=O)c1ccc(S(=O)(=O)NCC(c2ccc(N(C)C)cc2)c2c[nH]c3ccccc23)cc1 (stereo unspecified) | active: 10 µM | –
COc1cc(-c2nc(Cn3nnc(C(=O)Nc4cc(C)cc(C)c4)c3C)c(C)o2)cc(OC)c1OC | inconclusive: 2.82 µM [inhibitor, full curve, poor fit] | –
COCCNCC(=O)NCC12CC3CC(CC(C3)C1)C2 | inconclusive: 89.1 µM [inhibitor, single point] | –
O=C(c1cccnc1)n1nc(NCc2ccccc2)nc1NCc1ccccc1 | inconclusive: 17.8 µM [inhibitor, full curve] | –
COc1ccc(NC(=O)Cn2nnc(C(=O)NCCc3ccccc3)c2N)c(OC)c1 | inconclusive: 89.1 µM [inhibitor, single point] | –
CC(=O)Nc1cccc(NC(=O)CSc2ccc(C(F)(F)F)cc2[N+](=O)[O-])c1 | inconclusive: 89.1 µM [inhibitor, single point] | –
COc1ccc(C2/C(=C(/O)c3ccc(C)cc3)C(=O)C(=O)N2CCCN2CCOCC2)cc1 (stereo unspecified) | inconclusive: 89.1 µM [inhibitor, single point] | –
COc1cc2ccccc2cc1C(=O)NC(=S)Nc1nnn(C)n1 | – | inactive: -2.52%
CCC1=NN2C(=N)/C(=C\c3ccc(OCCOc4ccccc4)c(OC)c3)C(=O)N=C2S1 | – | inactive: -4.32%
Cn1c(Cl)cnc1C1CC(=O)c2cc(Cl)ccc2O1 (stereo unspecified) | inconclusive: 44.7 µM [inhibitor, partial curve] | –
O=C(NCc1ccccn1)c1ccc(OC2CCN(Cc3ccc(F)cc3F)CC2)cc1 | inconclusive: 56.2 µM [inhibitor, partial curve, poor fit] | –
O=C(CCc1nnc(C2(c3ccc(Cl)cc3)CCC2)o1)N1CCCC(O)C1 (stereo unspecified) | – | inactive: -23.9%
COc1ccc(CCNc2nc(-c3ccccn3)cs2)cc1OC | active: 22.4 µM | –
C=CCc1cccc2cc(C(=O)Nc3ccc(CC(=O)O)cc3)c(=O)oc12 | active: 31.6 µM | –
CCOC(=O)c1c(C)[nH]c(C)c1C(=O)CSc1nc2ccccc2c(=O)n1-c1ccc(C)cc1 | inconclusive: 70.8 µM [inhibitor, single point] | –
CCS(=O)(=O)N1CC(=O)N(c2cccc(Cl)c2C)C(C)(C(=O)NC2CCCCC2)C1 (stereo unspecified) | – | inactive: 3.33%

Structure (SMILES) | Potency | activity change, negative = inhibition
Nc1cc(-c2ccccc2)nn1Cc1ccc(Cl)cc1 | inconclusive: 39.8 µM [inhibitor, partial curve] | –
CCC(=O)OCC(=O)Nc1cc(C)c(C)cc1[N+](=O)[O-] | inconclusive: 70.8 µM [inhibitor, single point] | –
Cc1cc(C)cc(NC(=O)c2c(C)nc3ccccn23)c1 | inconclusive: 79.4 µM [inhibitor, single point] | –
COc1ccc(C2CC(c3cccs3)=Nc3ccccc3S2)cc1 (stereo unspecified) | inconclusive: 44.7 µM [inhibitor, partial curve] | –
Cc1cc(Cl)c(OCCn2ccnc2)c(Br)c1 | inconclusive: 89.1 µM [inhibitor, single point] | –
CC(=O)N1c2ccc(S(=O)(=O)N3CCCC3)cc2CC1C(=O)NCc1cccc(F)c1 (stereo unspecified) | – | inactive: -10.9%
COc1ccc(-c2c3c(=O)n(C)c(=O)n(C)c3cn2-c2ccccc2O)cc1 | inconclusive: 70.8 µM [inhibitor, single point] | –
COc1ccccc1/C=C(/C(=O)OCC(=O)Nc1ccc(N(C)C)cc1)c1ccccc1 | active: 10 µM | –
CCN(CC)CCCN(C(=O)c1cccc(C)c1)c1nc(-c2ccc(OC)cc2)cs1 | inconclusive: 70.8 µM [inhibitor, single point] | –
Oc1ccc(Nc2nc(-c3ccc4ccccc4c3)cs2)cc1 | inconclusive: 70.8 µM [inhibitor, single point] | –
O=C(Nc1ccccc1)N1CCN(c2cccc(C(F)(F)F)c2)CC1 | – | inactive: 12.7%
Clc1cccc(-c2ccc(CNCc3ccccn3)o2)c1 | active: 22.4 µM | –
CC1CC(C)CN(Cc2nc(N)nc(Nc3ccccc3)n2)C1 (stereo unspecified) | inconclusive: 70.8 µM [inhibitor, single point] | –
O=C(N/N=C/c1coc2ccc(Cl)cc2c1=O)c1cc(O)cc(O)c1 | inconclusive: 89.1 µM [inhibitor, single point] | –
Cc1ccc(N2CCN(C(=O)Nc3cccc([N+](=O)[O-])c3)CC2C)cc1 (stereo unspecified) | active: 56.2 µM | –
Cc1cc(C)cc(NS(=O)(=O)c2ccc3c(c2)NC(=O)C(C)S3)c1 (stereo unspecified) | – | inactive: -18.7%
O=C(CN1C(=O)NC2(CCCC2)C1=O)OCc1cc(=O)n2cc(Br)ccc2n1 | inconclusive: 50.1 µM [inhibitor, partial curve] | –
COc1ccc(NC(=O)O/N=C/c2ccccc2Cl)cc1 | – | inactive: -6.12%
Cc1cccc(NC(=O)Cc2cccs2)n1 | inconclusive: 100 µM [inhibitor, single point] | –
COc1cc2c(cc1NC(=O)c1cccnc1)CCCC2 | inconclusive: 89.1 µM [inhibitor, single point] | –
CCOC(=O)c1cc(S(=O)(=O)N(C)Cc2ccccc2)cn1C | – | inactive: 0.62%
COc1ccc(C(CNC(=O)COc2ccc(Cl)c(C)c2)N2CCOCC2)cc1 (stereo unspecified) | – | inactive: -12.4%
COc1ccc(OC)c(-n2c(-c3ccc(S(C)(=O)=O)cc3)cc(C=O)c2C)c1 | inconclusive: 56.2 µM [inhibitor, partial curve] | –
O=C(Nc1ccc(N2CCN(C(=O)c3cccs3)CC2)cc1)c1ccc(Br)o1 | inconclusive: 79.4 µM [inhibitor, single point] | –

Structure (SMILES) | Potency | activity change, negative = inhibition
Nc1ccc(CCn2ccnc2)cc1 | active: 44.7 µM | –
CCCn1nc([N+](=O)[O-])c(C(C#N)c2nc3ccccc3o2)c(Cl)c1=O (stereo unspecified) | active: 20 µM | –
CC(=O)C1=NOC2C(=O)N(c3ccc(Cl)cc3)C(=O)C12 (stereo unspecified) | – | inactive: -31.7%
CCN1CCN(c2c(S(=O)(=O)c3ccc(C)c(C)c3)cnc3cc(OC)c(OC)cc23)CC1 | inconclusive: 79.4 µM [inhibitor, single point] | –
CCCCOC(=O)c1c(C)oc2ccc(NS(=O)(=O)c3ccc4c5c(cccc35)C(=O)N4)cc12 | inconclusive: 89.1 µM [inhibitor, single point] | –
O=C(CSc1ncc(-c2ccc(F)cc2)n1Cc1ccco1)Nc1ccc2c(c1)OCO2 | active: 11.2 µM | –
Cc1ccc(CNC(=O)c2ccc(Cn3c(SCc4ccccc4F)nc4cccnc43)cc2)cc1 | – | inactive: 0.816%
O=C(COc1ccc2c(c1)OCO2)Nc1ccccc1F | inconclusive: 79.4 µM [inhibitor, single point] | –
O=C(OCC(=O)C12CC3CC(CC(C3)C1)C2)c1ccc(O)cc1O | inconclusive: 100 µM [inhibitor, single point] | –
NNc1nnc(-c2ccccc2)c(-c2ccccc2)n1 | active: 79.4 µM | –
Cc1ccc(N(CC(=O)NCCc2ccccc2)S(=O)(=O)N(C)C)cc1 | – | inactive: -0.555%
COc1cccc(NC(=O)c2nn(C)c(C(=O)Nc3cccc(OC)c3)c2[N+](=O)[O-])c1 | inconclusive: 89.1 µM [inhibitor, single point] | –
COc1cc(C)ccc1OCCSc1nc2ccc(NC(=O)c3ccc(F)cc3)cc2s1 | – | inactive: 0.734%
CSc1ncccc1C(=O)NCc1ccc(C)cc1 | inconclusive: 6.31 µM [inhibitor, single point] | –
COc1cccc(NC(=O)CSC2=NN3CCCC(=O)N=C3S2)c1 | inconclusive: 79.4 µM [inhibitor, single point] | –
O=C(COc1ccccc1F)Nc1ccc(-c2nc3ccccc3s2)cc1 | inconclusive: 89.1 µM [inhibitor, single point] | –
COc1ccc(-n2nnnc2SCC(=O)c2ccc(O)c(O)c2)cc1 | inconclusive: 11.2 µM [inhibitor, partial curve] | –
Cc1ccc(CNC(=O)c2ccc3c(c2)nc(C)n3-c2cc(C)cc(C)c2)cc1 | inconclusive: 15.8 µM [inhibitor, full curve, poor fit] | –
Cc1ccc(-n2c(COc3ccccc3)n[nH]c2=S)cc1 | – | inactive: -20.2%
O=C(O)CN1C(=O)/C(=C\c2cccc(OCc3ccc(Cl)cc3)c2)SC1=S | active: 44.7 µM | –
O=C1C2C(C(=O)N1/N=C/c1cc(Br)cc([N+](=O)[O-])c1O)C1C=CC2C12CC2 (stereo unspecified) | inconclusive: 44.7 µM [inhibitor, partial curve] | –
Cc1nn(S(=O)(=O)c2cccc([N+](=O)[O-])c2)c(C)c1Br | inconclusive: 44.7 µM [inhibitor, partial curve] | –
CCCSCCCNC(=O)C1CCN(c2nn3cc(-c4ccc(F)cc4)nc3s2)CC1 | inconclusive: 89.1 µM [inhibitor, single point] | –
